Measurements reported in the supplement of paper PMC4723716.
± gives the uncertainty stated by the source. The full ranking holds about 9,900 compounds; the median of “viability index relative to DMSO control” is about 1, and the lowest 2% start at about 0.85. Some of the results follow.

System: Plasmodium falciparum NF54 stage V gametocytes
Test: viability index relative to DMSO control (fraction); higher = less gametocyte killing
Conditions: 2.5 µM, incubation time: 72 h
How it was run: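 In 1,536-well plates, 10 µl of serum-free medium holding P. falciparum NF54 stage V gametocytes (0.75% gametocytemia, 1.25% hematocrit) received compound at 2.5 µM for 72 hr at 37°C in low oxygen. After one to two hours with 3 µl of 2.5 µM MitoTracker Red CMXRos containing 0.13% saponin, red particles of 20–70 µm2 were counted in a single field per well. Viability index is reported as the particle count over the plate mean of wells treated with solvent only.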

[1] = library set: Broad Institute DOS

Row | Structure (SMILES) | viability index [1] | viability index (library set: Broad Institute Blood Stage)
1 | C[C@@H]1CN([C@H](C)CO)C(=O)CCCn2nncc2CO[C@H]1CN(C)Cc1ccc2cccnc2c1 | 0.985 ± 0.022 | –
2 | CN1C(=O)c2cc(NC(=O)Nc3ccccc3Cl)ccc2OC[C@H]2O[C@@H](CC(=O)NCCCN3CCOCC3)CC[C@@H]21 | 1.02 ± 0.074 | –
3 | C[C@H]1CC(=O)NCC/C=C\C[C@H](c2ccc3c(c2)OCO3)NC1=O | 0.956 ± 0.024 | –
4 | CN(C)C(=O)c1cccc(-c2ccc([C@@H]3[C@@H]4CN(C(=O)Cc5ccccc5)C[C@H]3N4)cc2)c1 | 1.13 ± 0.053 | –
5 | CO[C@@H](CN(C)Cc1ccc2c(c1)OCO2)[C@H](C)CN(C(=O)c1ccccc1)[C@H](C)CO | 1.03 ± 0.083 | –
6 | CCCC#Cc1ccc2c(c1)[C@H]1[C@H](CCN1Cc1ccccc1F)[C@@H](CO)N2 | 1.08 ± 0.019 | –
7 | CC(C)NC(=O)Nc1ccc2c(c1)C(=O)N([C@@H](C)CO)C[C@H](C)[C@H](CN(C)C(=O)C1CCCCC1)OCCCC[C@@H](C)O2 | 1.017 ± 0.0016 | –
8 | CCC(=O)N1C[C@H](O)COC[C@H]2O[C@@H](CC(=O)NCc3ccc(Oc4ccccc4)cc3)CC[C@@H]21 | 1.09 ± 0.029 | –
9 | O=C(O)C[C@@H]1C[C@@H]2c3cc(NC(=O)Nc4ccc(C(F)(F)F)cc4)ccc3O[C@@H]2[C@@H](CO)O1 | 1.071 ± 0.0017 | –
10 | CCS(=O)(=O)Nc1ccc2c(c1)C(=O)N(C)[C@@H]1CC[C@H](CC(=O)NCc3ccccc3F)O[C@@H]1CO2 | 1.14 ± 0.043 | –
11 | C[C@H](NC(=O)C[C@@H]1CC[C@@H]2[C@H](COc3ccc(NS(=O)(=O)c4ccc(Cl)cc4)cc3C(=O)N2C)O1)c1ccccc1 | 1.01 ± 0.035 | –
12 | COc1ccc2c3c([C@@H](CO)NC[C@]33CN(Cc4ccccc4Cl)C3)n(C)c2c1 | 0.961 ± 0.0099 | –
13 | C[C@@H]1CCCCO[C@@H](CN(C)S(=O)(=O)c2ccc(F)cc2)[C@@H](C)CN([C@H](C)CO)C(=O)c2cc(NC(=O)CCCCCC(=O)Nc3ccccc3N)ccc2O1 | 1.02 ± 0.12 | –
14 | COc1ccccc1-c1ccc2c(c1)O[C@H](CN(C)CC1CCOCC1)[C@@H](C)CN([C@H](C)CO)S2(=O)=O | 0.9788 ± 0.0049 | –
15 | O=C(C1CC1)N1CC2(C1)[C@@H](c1ccccc1)[C@@H](CO)N2S(=O)(=O)c1ccccc1 | 1.06 ± 0.033 | –
16 | CCCNC(=O)Nc1ccc2c(c1)OC[C@H](C)N(S(C)(=O)=O)C[C@@H](C)[C@H](OC)CN(C)C2=O | 0.9825 ± 0.0052 | –
17 | O=C(NC[C@@H]1[C@@H](c2ccccc2)[C@@H](CO)N1C(=O)Cc1ccncc1)C1CCC1 | 1.06 ± 0.058 | –
18 | COc1ccc(S(=O)(=O)Nc2ccc3c(c2)C(=O)N([C@@H](C)CO)C[C@@H](C)[C@H](CN(C)C(=O)Nc2c(C)noc2C)OCCCC[C@@H](C)O3)cc1 | 1.17 ± 0.17 | –
19 | CCCc1cn(CC[C@@H]2CC[C@H](NS(=O)(=O)c3ccc(-c4ccccc4)cc3)[C@H](CO)O2)nn1 | – | 0.909 ± 0.037
20 | COc1cccc(S(=O)(=O)Nc2ccc3c(c2)[C@@H]2C[C@H](CC(=O)NC4CCCCC4)O[C@@H](CO)[C@@H]2O3)c1 | 1.066 ± 0.0012 | –
21 | O=C(C1CCOCC1)N1CC(=O)N2[C@H](CO)[C@@H](c3ccc(C#CCc4ccccc4)cc3)[C@@H]2C1 | 1.006 ± 0.0042 | –
22 | COc1ccc2c3c([nH]c2c1)[C@H](CO)N(Cc1cc(F)ccc1F)C[C@]31CCN(CC1)C(=O)CN(C)C | 0.93 ± 0.12 | –
23 | CO[C@@H]1CN(C)C(=O)c2cc(NC(=O)C3CC3)ccc2OC[C@H](C)N(Cc2cc(F)ccc2F)C[C@@H]1C | 0.971 ± 0.069 | –

Row | Structure (SMILES) | viability index [1] | viability index (library set: Broad Institute Blood Stage)
24 | CCc1cnc(N2[C@H](C#N)[C@H](c3ccc(C4=CCCCC4)cc3)[C@H]2CO)s1 | 1.04 ± 0.048 | –
25 | CN1C(=O)c2cc(NS(=O)(=O)c3ccccc3F)ccc2OC[C@@H]2O[C@H](CC(=O)NC3Cc4ccccc4C3)CC[C@@H]21 | 1 ± 0.06 | –
26 | CO[C@@H]1CN(C)C(=O)c2ccc(NC(=O)C3CCOCC3)cc2OC[C@@H](C)N(Cc2ccc(F)cc2)C[C@H]1C | 1.07 ± 0.012 | –
27 | COc1ccc(C#Cc2ccc([C@@H]3[C@@H](CO)N4C(=O)CN(C(=O)NC(C)C)C[C@@H]34)cc2)cc1 | 1.02 ± 0.086 | –
28 | CO[C@@H]1CN(C)C(=O)c2ccc(NS(C)(=O)=O)cc2OC[C@H](C)N(C(=O)CN(C)C)C[C@H]1C | 0.905 ± 0.26 | –
29 | COc1ccccc1-c1ccc([C@@H]2[C@@H]3CN(Cc4nccs4)C[C@H]2N3)cc1 | 0.9605 ± 0.0013 | –
30 | CCC(=O)N1C[C@]2(CN(C2)C(C)=O)c2c([nH]c3cc(OC)ccc23)[C@H]1CO | 1.05 ± 0.028 | –
31 | O=C(C[C@@H]1CC[C@H]2[C@@H](COC[C@H](O)CN2C(=O)c2ccncc2)O1)Nc1ccc(-c2ccccc2)cc1 | 1.11 ± 0.026 | –
32 | CCS(=O)(=O)N1CC2(C1)[C@H](c1ccccc1)[C@@H](CO)N2Cc1ccc(F)cc1 | 1.11 ± 0.056 | –
33 | COc1cccc(S(=O)(=O)N2C[C@@H]3N[C@H](C2)[C@@H]3c2ccc(-c3ccccc3F)cc2)c1 | 1.02 ± 0.072 | –
34 | CCc1cnc(N2[C@H](C#N)[C@@H](c3ccc(-c4cccc(F)c4)cc3)[C@H]2CO)s1 | 1.07 ± 0.011 | –
35 | O=C(C[C@H]1C[C@H]2c3cc(NC(=O)c4ccc5c(c4)OCO5)ccc3O[C@H]2[C@@H](CO)O1)NCc1ccc(Oc2ccccc2)cc1 | 1.03 ± 0.033 | –
36 | O=C(C[C@H]1CC[C@H](NC(=O)Nc2ccc(C(F)(F)F)cc2)[C@@H](CO)O1)NCc1cccc(F)c1 | 0.983 ± 0.018 | –
37 | CCCC#Cc1ccc([C@H]2[C@@H](CO)N3C(=O)CN(S(=O)(=O)c4ccccc4C)C[C@H]23)cc1 | 1.025 ± 0.0087 | –
38 | O=C(C1CCC1)N1C[C@H]2[C@@H](c3ccccc31)[C@@H](CO)N2C(=O)Nc1cccc(F)c1 | 0.954 ± 0.017 | –
39 | CCS(=O)(=O)Nc1ccc2c(c1)C(=O)N(C)[C@H]1CC[C@H](CC(=O)N3CCN(C)CC3)O[C@@H]1CO2 | 1.05 ± 0.051 | –
40 | C/C=C/c1ccc([C@@H]2[C@H]3CNC[C@@H]2N3S(=O)(=O)c2ccccc2C)cc1 | 0.99 ± 0.13 | –
41 | COc1ccccc1NC(=O)N1CC(=O)N2[C@H](CO)[C@H](c3ccc(C#CC(C)C)cc3)[C@@H]2C1 | 1.06 ± 0.02 | –
42 | Cc1noc(C)c1S(=O)(=O)N(C)C[C@H]1OCCCC[C@@H](C)Oc2ccc(NC(=O)CCC(F)(F)F)cc2C(=O)N([C@H](C)CO)C[C@@H]1C | 1.2 ± 0.03 | –
43 | CC(C)NC(=O)N1[C@@H](CO)[C@@H]2c3ccccc3NC[C@@H]21 | 1.03 ± 0.013 | –
44 | N#C[C@H]1[C@H](c2ccccc2)[C@@H](CO)N1S(=O)(=O)c1cccc(F)c1 | 1.03 ± 0.063 | –
45 | COc1ccc(S(=O)(=O)N(C)C[C@H]2OCCCC[C@H](C)Oc3ccc(NC(=O)Cc4ccccc4)cc3C(=O)N([C@@H](C)CO)C[C@H]2C)cc1 | 0.791 ± 0.031 | –
